# Variants at the background level are over-represented here.
# B1: tRNA (parent)
# chain: CUCUCGGUAGCCAAGUUGGUUUAAGGCGCAAGACUUUAAUUUAUCACUACGAAAUCUUGAGAUCGGGCGUUCGACUCGCCCCCGGGAGAUUUUUUCCUCGAGCAA
# Variants of: B1
# Assay: nonsense suppression (GFP-seq) (ratio to wild type); higher = more function; SUP4oc tRNA, yeast GFP reporter sort-seq
# In short: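 To measure nonsense suppression, tRNA variants from a library carrying ~3% random mutations were integrated into the yeast genome alongside RFP and a GFP ochre reporter under galactose control. Growth took place in raffinose/galactose medium supplemented with 80 mg/L adenine, followed by sorting into GFP/RFP bins and Illumina sequencing of each bin (phred ≥30). For each variant with ≥100 reads and ≥30 cells, the bin median GFP/RFP values were weighted by its estimated cell share per bin and referenced to the unmutated parent tRNA.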
row,Variant,nonsense suppression
1,CUCUUGGUAGCCAAGUUGGUUUAAGGCGCAAGACUUUAAUUUAUCACUACGAAAUCUUGAGAUCGGGCGUACGACUCGCCCCCGGGAGAUUUUUUCCUCGAGCAA,≤ 0.026
2,CUCUUGGUAGCCAAGUUGGGUUAAGGCGUAAGACUUUAAUUUAUCACUACGAAAUCUUGCGAUCGGGCGUUCGACUCGCCCCCGGGAGAUUUUUUCCUCGAGCAA,≤ 0.026
3,CUCUCAGUAGCCAAGUUGGUUUCAGGCGCAAGACUUUAAUUUAUCACUACGAAAUCUUGAGAUCGGGCGUUCGACUCGCCUCCGGGAGAUUUUUUCCUCGAGCAA,≤ 0.026
4,CUCUCAGUGGCCAAGUUGGUUUAAGGCGGAAGACUUUAAUUUAUCACUACGAAAUCUUGAGAUCGGGCGAUCGACUCGCCCCCGGGAGAUUUUUUCCUCGAGCAA,≤ 0.026
5,CUCUUGGUAGCCAAGUUGGUUUAAGGCGCAAGACUUUAAUUUAUCACUACGAAAUCUGGAGAUCGGGCGUUCGACUCGCCCCCGGGAGAUUUUUUCCUCGAGCAA,≤ 0.026
6,CUCUUGGUAGCCAAGUUGGUUUAAGGCGCAAGACUUUAAUUUAUCACUACGAAAUCUUGAGAUCGGGCGGUCGACUCGCCCCCGGGAGAUUUUUUCCUCGAGCAA,≤ 0.026
7,CUCUUGGUAGCCAAGUUGGUUUAAGGCGCAAGACUUUAAUUUAUCACUACGAAAUCUUGAGAUCGGGCGAUCGACUCGCCCCCGGGAGAUUUUUUCCUCGAGCAA,≤ 0.026
8,CUCUCAGUAGGCCAGUUGGUUUAAGCCGCAAGACUUUAAUUUAUCACUACGAAAUCUUGAGAUCGGGCGUUCGACUCGCCCCCGGGAGAUUUUUUCCUCGAGCAA,≤ 0.026
9,CUCUUGGUAGCCAAGUCGGUUUAAGGCGCAAGACUUUAAUUUAUCACUACGAAAUCUUGAGAUCGGGCGUUCGACUCGCCCCCGGGAGAUUUUUUCCUCGAGCAA,0.0495
10,CUCUUGGUAGCCAAGUUGGUUCAAGGUGCAAGAUUUUAAUUUAUCACUACGAAAUCUUGAGAUCGGGCGUUCGACUCGCCCCCGGGAGAUUUUUUCCUCGAGCAA,≤ 0.026
11,CUCUCAGUAGCCGAGUUAGUUUAAGGCGCAAGACUUUAAUUUAUCACUACGAAAUAUUGAGCUCGGCCGUUCCACUCGCCCCCGGGAGAUUUUUUCCUCGAGCAA,≤ 0.026
12,CUCUCAGUAGCCAAGUUGGUUUCAGGCGCAAGACUUUAAUUUAUCACUACGAAAUCGGGAGAUCGGGCGUUCGACUCGCCCCCGGAAGAUUUUUUCCUCGAGCAA,≤ 0.026
13,CUCUUGGUAGCCAAGUUGGUUAAAGACGCAAGACUUUAAUUUAUCACUACGAAAUCUUGAGAUCGGGCGUUCGACCCGCCCCCGGGAGAUUUUUUCCUCGAGCAA,≤ 0.026
14,CUCUCAGUAGCCAGGUUGGUUUAAGGCGCAAGACUUUAAUUUAUCACUACGAAAUCUUGAGAUCGGGUGUUCGACUCGCCCCCGGGAGAUUUUUUCCUCGAGCAA,≤ 0.026
15,CUCUUGGUAGCCAAGUUGGCUUAAGGCGCAAGACUUUAAUUUAUCACUACGAAAUCUUGAGAUCGGGCGUUCGACUCGCCCCCGGGAGAUUUUUUCCUCGAGCAA,≤ 0.026
16,CUCUCAGUAGCAAAGUUGGUUUAAGGCGCAAGACUUUAAUUUAUCACUACGAAAUCUUGAGAUCGGGCGUUCGACUCGCCCCCGGGACAUUUUUUCCUCGAGCAA,≤ 0.026
17,CUCUUGGUAGCCAAGUUGGUUUAAGGCGCAAGACUUUAAUUUAUCACUACGAAAGCUUGAGAUCGGGUGUUCGACUCGCCCCCGGGAGAUUUUUUCCUCGAGCAA,≤ 0.026
18,CUCUUGGUAGCCAAGUUGGUUCAAGGCGCAAGACUUUAAUUUAUCACUACGAAAUCUUGAGAUCGGGCGUUCGACUCGCCCCCGGGACAUUUUUUCCUCGAGCAA,≤ 0.026
19,CUCUUGGUAGCCAAGUUGGUUUAAGGCGCAAGACGUUAAUUUAUCACUACGAAAUCUUGAGAUCGGGCGUUAGACUCGCCCCCGAGAGAUUUUUUCCUCGAGCAA,≤ 0.026
20,CUCUUGGUAGCCAAGUAGGUUUAAGGCGCAAGACUUUAAUUUAUCACUACGAAAUCUUGAGAUCGGGCGUUCUACUCGCCCCCGGGAGAUUUUUUCCUCGAGCAA,≤ 0.026
21,CUCUCAGUCGCCAAGUUUGUUUAAGGCGCAAGACUUUAAUUUAUCACUACGAAAUCUUGAGAUCGGGCGUUCGACUCGCCCCCGGGAGAUUUUUUCCUCGAGCAA,≤ 0.026
22,CUCUUGGUAGCCAAGUCGGUUUAGGGCGCAAGACUUUAAUUUAUCACUACGAAAUCUUGAGAUCGGGCGUUCGACUCGCCCCCGGGAGAUUUUUUCCUCGAGCAA,≤ 0.026
23,CUCUCAGUAGCCAAGUUGGUUUAAGGAGCAAGACUUUAAUUUAUCACUACGAAAUCUUGAGAUCGGGCGUUCGACUCGCCCCCGGGAGAUUUUUUCCUCGAGCAA,≤ 0.026
24,CUCUUGGUAGCCAAGUUGGUUUAAGGCGCAAGACUUUAAUUUAUCACUACGAAAUCUUGAGAUCGGGCGCUCGACUCGCCCCCAGGAGAUUUUUUCCUCGAGCAA,≤ 0.026
25,CUCUCAGUAGCGAAGUUGGUUUAAGGCGCAAGACAUUAAUUUAUCACUACGAAAUCUUGAGAUCGGGCGUUCGACUCGUCCCCGGGGGAUUUUUUCCUCGAGCAA,≤ 0.026
26,CUCUCAGUAGCCAAGUUGGUUUAAGGCGCAAGACUUUAAUUUAUCACUACGAAUUCGUGGGAUCGGGCGUUCGACUCGCCCCCGGCAGAUUUUUUCCUCGAGCAA,≤ 0.026
27,CUCUUGGUAGCCAAGUUGGUUUAAGGCGCAAGACUUUAAUUUAUCACUACGAAAGCUUGAGAUCGGGCGUUCGACUCGCCCCCGGUAGCUUUUUUCCUCGAGCAA,≤ 0.026

row,Variant,nonsense suppression
1,CUCUUGGUAGCCAAGUUGGUUUAAGGCGCAAGACGUUAAUUUAUCACUACGAAAUCUUGAGAUCGGGCGUUCGACUCGCCCCCGGGAGAUUUUUUCCUCGAGCAA,≤ 0.026
2,CUCUCAGUAGCCAGGUUGGUUUAAGGCGCAGGACUUUAAUUUAUCACUACGAAAUCUUGAGAUCGGGCGUUCGACUCGCCCCCGGGAGAUUUUUUCCUCGAGCAA,≤ 0.026
3,CUCUCAGUAGACAAGUUGGUUUGAGGCGCAAGACUUUAAUUUAUCACUACGAAAUCUUGAGUUCGGGCGUUCGACUCGCCCCCGGGAGAUUUUUUCCUCGAGCAA,≤ 0.026
4,CUCUUGGUAGCCAAGUUGGUUUAAGGCGCAAGACUUUAAUUUAUCACUACGAAAUCUUGAGAGCGGGCGUUCGACUCGCCGCCGGGAGAUUUUUUCCUCGAGCAA,≤ 0.026
5,CUCUUGGUAGCCAAGUUGGUGUAAGGCGCAAGACCUUAAUUUAUCACUACGAAAUAUUGAGAUCGGGCGUUCGACUCGCACCCGGGAGAUUUUUUCCUCGAGCAA,≤ 0.026
6,CUCUCAGUAGCCAAGUUGGUUUAAGGCGCAAGUCUUUAAUUUAUCACUACGAAAUCUUCAGAUCGGGCGUUCGACACGCCCCCGGGAGAUUUUUUCCUCGAGCAA,≤ 0.026
7,CUCUCAGUAGCCAAGUUGGUUUAAGGUGCAAGACUUUAAUUUAUCACUACGAAAUCUUGAGAUCGGGCGUUCGGCUCGCCCCCGGGAGAUUUUUUCCUCGAGCAA,≤ 0.026
8,CUCUUGGUAGCCAAGUUGGUUUAAGGCGCAAGACGUUAAUUUAUCACUACGAAAUCUUGAGAUCGGUCGUUCGACUCGCCCCCGGGAGAUUUUUUCCUCGAGCAA,≤ 0.026
9,CUCUUGGUAGCCAAGUUGGUUAAAGGCGCAAGACUUUAAUUUAUCACUACGAAAUCUAGAGAUCCGCCCUUCGACUCGCCCCCGGGAGAUUUUUUCCUCGAGCAA,≤ 0.026
10,CUCUCAGUAGCCAGGUUGGUUUAAGGCGCAAGACUUUAAUUUAUCACUACGAAAUCUUGAGUUCGGGCGUUCGCCUCGCCCCCGCGAGAUUUUUUCCUCGAGCAA,≤ 0.026
11,CUCUUGGUAGCCAAGUGUGUUUAAGGCGCAAGACUUUAAUUUAUCACUACGAAAUUUUGACAUCGGGCGUUCGACUCACCCCCGGGAGAUUUUUUCCUCGAGCAA,≤ 0.026
12,CUCUUGGUAGCCAAGUUGGUUUAAGGCGCAAGACUUUAAUUUAUCACUACGAAAUCGUGAGAUCGGGCGUUCGACUCGCCCCCGGGAGAUUUUUUCCUCGAGCAA,≤ 0.026
13,CUCUUGGUAGCCAAGUUGGUUUAAGGCGCAAGACUUUAAUUUAUCACUACGAAAUCAUGAGAUCGGGCGUUCGACUCGCCCCCGGGAGAUUUUUUCCUCGAGCAA,≤ 0.026
14,CUCUCAGUAGCCAAGUUGGUUUAGGGAGGAAGACUUUAAUUUAUCACUACGAAAUCUUGAGAUCGGGCGUUCGACUCGCCCCCGGGAGAUUUUUUCCUCGAGCAA,≤ 0.026
15,CUCUUGGUAGCCAAGUUGGUUUAAGGCGCAAGACUUUAAUUUAUCACUACGAAAUCUUGAGAUCGGGCGUACGACUCGCCGCCGGGAGAUUUUUUCCUCGAGCAA,≤ 0.026
16,CUCUUGGUAGCCAAGUUGGAUUAAGGCGCAAGACUUUAAUUUAUCACUACGAAAUCUUGAGAUCAGGCGUUGGACUCGCCCCCGGGAGAUUUUUUCCUCGAGCAA,≤ 0.026
17,CUCUUGGUAGCCAAGUGGGUUAAGGGCGUAAGACUUUAAUUUAUCACUACGAAAUCUUGAGAUCCGGCGUUCGACUCGCCCCCGGGAGAUUUUUUCCUCGAGCAA,≤ 0.026
18,CUCUUGGUAGCCAAGUUGGUUUAAGGCGCAAGACUUUAAUUUAUCACUACGAAACCUUGAGAUCGGGCGUUCGACUCGCCCCCGGGAAAUUUUUUCCUCGAGCAA,≤ 0.026
19,CUCUCAGUGGCCAAGUUGGUUUAAGGCGCAAAAGUUUAAUUUAUCACUACGAAAUCUUGAGAUCGAGCGUUCGACUCGCCCCCGUGAGAUUUUUUCCUCGAGCAA,≤ 0.026
20,CUCUUGGUAGCCAAGUUGGACUAAGGCGCAAGACUUUAAUUUAUCACUACGAAAUCUUGAGAUCGGGCGUUCGACUCGCCCCCGGGAGAUUUUUUCCUCGAGCAA,≤ 0.026
21,CUCUCAGUAGCCAAGUUGGUUUAAGGCGCGAGACUUUAAUUUAUCACUACGAAAUCUUGAGAUCGCGCGUUCGAUUCGCCCCCGGGAGAUUUUUUCCUCGAGCAA,≤ 0.026
22,CUCUCAGUAGCCGAGUUGGUUUAAGGCGCAAGACUUUAAUUUAUCACUACGAAAUCCUGAGAUCGGGAGUUCGACUCGCCCCCGGGAGAUUUUUUCCUCGAGCAA,≤ 0.026
23,CUCUCAGUAGCCAAGUUGGUUUAAGGCGCGAGACUUUAAUUUAUCACUACGAAAUCUUGAGAUCGGGCGUUCGACUCGCCCCCGGGAGAUUUUUUCCUCGAGCAA,≤ 0.026
24,CUCUCAGUAGCCAAGUUGGUUUAAGGCGCUAGACUUUAAUUUAUCACUACGAAAUCUUGAGAUCGGGCGUUCGACUCGCCCCCGGGAGAUUUUUUCCUCGAGCAA,≤ 0.026
25,CUCUCAGUAGCCAAGUUGGUUUAAGGCGCAGGACUUUAAUUUAUCACUACGAAAUCUUGAGAUCGAGCGUUCGACUCGCGCCCGGGAGAUUUUUUCCUCGAGCAA,≤ 0.026
26,CUCUCAGUAGCCAAGUUGGUUUAAGGCGCUAGCCUUUAAUUUAUCACUACGAAAUCUUUAGAUCGGGCGUUAGACCCGCCCCCGGGAGAUUUUUUCCUCGAGCAA,≤ 0.026
27,CUCUCAGUAGCAAAGUUGGUUUAGGGCGCAAGACUUUAAUUUAUCACUACGAAACCUUGAGAUCGGGCGUUCGACUCGCCCCCGGGAGAUUUUUUCCUCGAGCAA,≤ 0.026
